Values joined by “and” are separate entries in the source; they are usually repeats but may differ in a detail not shown here. Equal values may be shown once.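 Tested at 5 concentrations; 48 h exposure; 96-well plates; endpoints linearly interpolated, else capped at highest concentration. GI50 = concentration required for 50% inhibition of growth. TGI is the concentration that stops growth completely.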
System: NCI-H322M lung
Assay: inhibition of tumour cell growth, NCI panel, 48 h

Row | Structure (SMILES) | GI50 | TGI [µM]
1 | COc1cccc2c1[C@H]1CO[C@H]3C4C[C@H](C(=O)O)C([C@@H](C2)N13)N4C (some centres undefined) | 0.894 µM | 4.33
2 | Oc1nc(N/N=C/c2ccccc2)[nH]c1/C=C1\C=Nc2ccccc21 | – | > 100
3 | CC(NNC(=O)c1ccncc1)c1ccc(Cl)c(Cl)c1 (centres undefined) | – | > 100
4 | CC(=O)NNc1nc(C)c(C(=O)/C=C/c2ccc(/C=C/C(=O)c3sc(NNC(C)=O)nc3C)cc2)s1 | – | > 100
5 | Nc1ncnc2c1nnn2C1C=C(CO)C(O)C1O (centres undefined) | – | > 100
6 | CC(=O)OC(C)C(OC(C)=O)C(OC(C)=O)C(/C=C/C1CC=CC(=O)O1)OC(C)=O (centres undefined) | 53.4 µM | > 100
7 | COc1ccc2c(c1)/C(=C\c1c[nH]c3ccc(OC)cc13)C(=O)N2 | 3.44 µM | 15.7
8 | N#CC12C(=O)N3C(=NC(c4ccccc4)NC3c3ccccc3)C1(C#N)C(c1ccccc1)NC1=C2CCCC1 (centres undefined) | – | > 100
9 | COc1cccc(CC(C)=C(c2ccc(OCCCN(C)C)cc2)c2ccc(OCCCN(C)C)cc2)c1 | 0.775 µM | 2.43
10 | CN(/N=N/c1nc[nH]c1C(N)=O)C1CCCCC1 | – | > 100
11 | CC(=O)O.CC(=O)O.CC(=O)O.CC(=O)O.[Rh].[Rh] | > 100 µM | > 100
12 | O=C(N/N=C/c1ccc(Cl)cc1)c1cc(I)cc(I)c1O | – | > 100
13 | CN(c1ccc(C#N)c(Cl)c1)C1CCC(NC(=O)c2ccc(N3CCN(C4CN(c5ccc6c(c5)C(=O)N(C5CCC(=O)NC5=O)C6=O)C4)CC3)cc2)CC1 (centres undefined) | > 100 µM | > 100
14 | CC1C2CC(C/C2=N/O)C1(C)C (centres undefined) | – | > 100
15 | COc1cc(C(c2cccc3ccccc23)N2C(=O)CCC2C(=O)NCc2ccccc2)cc(OC)c1OC (centres undefined) | – | > 100
16 | Cc1c2ccncc2c(C)c2c1c1cc(CO)ccc1n2C | 0.551 µM | 3.82
17 | COc1ccc2c(c1)CC1Cc3ccccc3CCN1C2 (centres undefined) | – | > 100
18 | C=CCn1c(=O)c2cnc(Nc3ccc(N4CCN(C)CC4)cc3)nc2n1-c1cccc(C(C)(C)O)n1 | 0.341 µM and 0.334 µM | > 31.5
19 | COc1ccc(/C(=N/Nc2nc3ccccc3[nH]2)C(=O)O)cc1 | – | > 100
20 | O=c1[nH]cnc2sc(=S)c3c(c12)CCC3 | – | > 100
21 | CN(C)C(=O)C(F)(F)C(c1ccc(Br)cc1)C1C(=O)N(C)C(=O)N(C)C1=O (centres undefined) | – | > 100
